These results are taken from article PMC4076271.

Amino acid sequences for entries named in this document (tags omitted).
UniProt Q15717: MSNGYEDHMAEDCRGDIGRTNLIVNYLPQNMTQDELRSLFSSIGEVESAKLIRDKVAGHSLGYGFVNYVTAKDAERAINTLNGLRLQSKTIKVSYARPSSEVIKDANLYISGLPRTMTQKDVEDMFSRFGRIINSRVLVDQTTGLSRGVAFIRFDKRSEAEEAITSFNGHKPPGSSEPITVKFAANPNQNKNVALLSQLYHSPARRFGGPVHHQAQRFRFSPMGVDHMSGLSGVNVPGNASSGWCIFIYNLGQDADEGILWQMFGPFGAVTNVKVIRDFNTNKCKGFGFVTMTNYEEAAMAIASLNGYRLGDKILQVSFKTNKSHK
UniProt P26651: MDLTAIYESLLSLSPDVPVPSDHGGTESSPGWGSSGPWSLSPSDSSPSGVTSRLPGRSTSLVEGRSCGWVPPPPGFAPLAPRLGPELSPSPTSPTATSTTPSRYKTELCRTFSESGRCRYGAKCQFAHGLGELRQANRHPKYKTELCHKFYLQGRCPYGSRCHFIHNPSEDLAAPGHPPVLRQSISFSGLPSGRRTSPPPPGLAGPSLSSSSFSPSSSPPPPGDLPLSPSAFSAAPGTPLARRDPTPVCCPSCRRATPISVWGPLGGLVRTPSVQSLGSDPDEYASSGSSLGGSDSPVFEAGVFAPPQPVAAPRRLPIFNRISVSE
UniProt P70372: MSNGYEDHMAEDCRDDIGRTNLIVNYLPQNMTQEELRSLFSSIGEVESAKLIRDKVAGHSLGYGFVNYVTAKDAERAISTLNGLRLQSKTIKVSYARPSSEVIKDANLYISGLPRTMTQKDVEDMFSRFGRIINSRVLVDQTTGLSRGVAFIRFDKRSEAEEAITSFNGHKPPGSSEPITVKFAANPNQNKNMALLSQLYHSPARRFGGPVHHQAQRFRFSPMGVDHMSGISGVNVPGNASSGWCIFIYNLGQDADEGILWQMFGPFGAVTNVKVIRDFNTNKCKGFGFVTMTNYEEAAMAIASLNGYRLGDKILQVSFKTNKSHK
UniProt P62258: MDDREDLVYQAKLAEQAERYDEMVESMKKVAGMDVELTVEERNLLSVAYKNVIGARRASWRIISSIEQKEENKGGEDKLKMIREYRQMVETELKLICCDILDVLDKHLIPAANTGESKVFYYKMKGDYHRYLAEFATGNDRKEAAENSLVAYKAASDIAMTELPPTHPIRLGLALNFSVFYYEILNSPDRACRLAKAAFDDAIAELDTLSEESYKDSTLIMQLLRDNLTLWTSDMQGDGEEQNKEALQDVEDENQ
UniProt P27708: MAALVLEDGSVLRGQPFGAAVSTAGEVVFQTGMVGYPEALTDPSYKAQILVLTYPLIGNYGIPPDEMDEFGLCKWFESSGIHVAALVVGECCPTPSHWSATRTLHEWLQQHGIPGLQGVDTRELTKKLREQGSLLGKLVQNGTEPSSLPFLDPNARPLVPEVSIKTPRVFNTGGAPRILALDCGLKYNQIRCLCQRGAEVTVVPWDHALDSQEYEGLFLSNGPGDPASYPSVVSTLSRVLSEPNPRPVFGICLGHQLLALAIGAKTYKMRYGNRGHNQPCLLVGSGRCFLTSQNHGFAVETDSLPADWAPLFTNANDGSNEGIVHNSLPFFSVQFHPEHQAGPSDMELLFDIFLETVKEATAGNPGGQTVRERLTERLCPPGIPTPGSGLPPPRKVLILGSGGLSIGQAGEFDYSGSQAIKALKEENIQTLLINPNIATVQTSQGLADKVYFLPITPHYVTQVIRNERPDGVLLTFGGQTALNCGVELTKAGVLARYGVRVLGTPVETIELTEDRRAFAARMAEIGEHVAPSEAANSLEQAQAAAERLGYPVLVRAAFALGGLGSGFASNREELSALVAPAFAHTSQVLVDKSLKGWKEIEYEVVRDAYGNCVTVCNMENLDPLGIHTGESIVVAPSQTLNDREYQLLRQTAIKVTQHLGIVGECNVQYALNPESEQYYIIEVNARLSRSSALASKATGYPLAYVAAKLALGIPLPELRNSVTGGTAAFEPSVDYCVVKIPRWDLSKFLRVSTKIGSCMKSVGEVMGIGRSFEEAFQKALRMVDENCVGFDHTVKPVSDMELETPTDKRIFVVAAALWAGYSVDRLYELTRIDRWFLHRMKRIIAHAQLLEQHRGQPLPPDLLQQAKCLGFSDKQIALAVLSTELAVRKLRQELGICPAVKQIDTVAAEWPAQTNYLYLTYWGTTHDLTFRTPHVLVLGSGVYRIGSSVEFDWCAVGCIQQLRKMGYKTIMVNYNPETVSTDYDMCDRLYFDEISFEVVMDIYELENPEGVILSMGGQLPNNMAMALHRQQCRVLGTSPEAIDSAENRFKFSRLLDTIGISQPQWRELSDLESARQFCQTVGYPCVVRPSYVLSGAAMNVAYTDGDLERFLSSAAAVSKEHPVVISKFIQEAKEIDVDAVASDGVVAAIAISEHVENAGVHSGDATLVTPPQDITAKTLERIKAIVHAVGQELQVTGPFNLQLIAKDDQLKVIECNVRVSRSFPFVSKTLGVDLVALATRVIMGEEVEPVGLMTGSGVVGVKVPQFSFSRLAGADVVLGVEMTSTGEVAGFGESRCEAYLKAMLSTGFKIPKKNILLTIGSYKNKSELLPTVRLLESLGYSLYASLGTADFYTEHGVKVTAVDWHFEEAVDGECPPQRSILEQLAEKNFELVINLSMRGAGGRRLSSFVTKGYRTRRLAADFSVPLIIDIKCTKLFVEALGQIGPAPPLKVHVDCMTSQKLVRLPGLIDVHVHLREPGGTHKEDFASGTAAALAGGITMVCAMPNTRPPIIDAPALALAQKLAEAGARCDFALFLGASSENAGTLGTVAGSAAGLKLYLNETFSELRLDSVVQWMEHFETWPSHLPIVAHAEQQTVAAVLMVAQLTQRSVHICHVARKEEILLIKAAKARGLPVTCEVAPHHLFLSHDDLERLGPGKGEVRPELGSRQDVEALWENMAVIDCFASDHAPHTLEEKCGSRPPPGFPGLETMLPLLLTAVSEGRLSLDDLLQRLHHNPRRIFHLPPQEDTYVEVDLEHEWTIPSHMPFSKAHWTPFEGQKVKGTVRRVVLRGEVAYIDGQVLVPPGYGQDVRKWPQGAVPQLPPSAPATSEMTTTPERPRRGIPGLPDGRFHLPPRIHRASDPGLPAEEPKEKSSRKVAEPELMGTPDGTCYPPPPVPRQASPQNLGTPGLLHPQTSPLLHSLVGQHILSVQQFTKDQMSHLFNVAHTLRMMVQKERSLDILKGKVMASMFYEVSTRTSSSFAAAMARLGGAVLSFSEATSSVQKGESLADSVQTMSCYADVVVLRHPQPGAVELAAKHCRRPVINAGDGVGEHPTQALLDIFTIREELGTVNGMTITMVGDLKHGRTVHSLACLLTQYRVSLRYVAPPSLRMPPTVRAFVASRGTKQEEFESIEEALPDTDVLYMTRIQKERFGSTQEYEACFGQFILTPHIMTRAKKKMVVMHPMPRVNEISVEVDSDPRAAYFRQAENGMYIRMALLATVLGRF

These are yes or no findings as the source states them, for the method shown. In cells and extracts the contact can be indirect. Some entries that bind do so weakly or less than the wild type. For some assays here: Sequences can lack the tags named with a protein.

The target in test [1] is T1, TTP (tristetraprolin), endogenous in RAW264.7 macrophage cells (mouse (endogenous in RAW264.7)) (UniProt P22893).
T1 sequence: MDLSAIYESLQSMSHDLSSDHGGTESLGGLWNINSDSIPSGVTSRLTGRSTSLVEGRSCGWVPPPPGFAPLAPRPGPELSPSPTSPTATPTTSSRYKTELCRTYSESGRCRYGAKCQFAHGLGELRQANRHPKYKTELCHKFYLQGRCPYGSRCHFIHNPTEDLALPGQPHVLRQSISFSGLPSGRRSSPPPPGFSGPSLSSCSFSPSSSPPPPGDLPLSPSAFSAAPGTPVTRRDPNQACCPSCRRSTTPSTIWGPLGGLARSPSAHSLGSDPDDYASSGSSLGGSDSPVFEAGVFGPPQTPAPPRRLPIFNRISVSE
In words: co-IP; anti-TTP IP (Protein A sepharose) of endogenous proteins from RNase A-treated extracts of RAW264.7 cells after 2 and 6 h of 100 ng/ml LPS; 150 mM NaCl, Net-2 buffer, 4°C; Western blot. Background: In western blotting, separated proteins are transferred to a membrane and probed.

In the next test the target is T2, Flag-tagged BRF1 (UniProt Q07352).
T2 sequence: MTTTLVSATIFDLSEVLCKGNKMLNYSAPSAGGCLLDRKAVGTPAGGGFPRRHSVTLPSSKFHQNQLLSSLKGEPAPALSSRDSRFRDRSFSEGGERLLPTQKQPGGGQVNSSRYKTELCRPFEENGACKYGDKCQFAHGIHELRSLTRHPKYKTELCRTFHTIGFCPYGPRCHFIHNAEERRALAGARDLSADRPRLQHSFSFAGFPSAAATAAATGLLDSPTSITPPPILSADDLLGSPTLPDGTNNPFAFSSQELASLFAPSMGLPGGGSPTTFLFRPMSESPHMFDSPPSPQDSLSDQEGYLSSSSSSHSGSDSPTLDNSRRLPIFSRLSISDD
In words: co-IP; anti-Flag IP from RNase-treated extracts of HEK 293T cells transiently co-expressing Flag-tagged bait and Myc-tagged proteins; Western blot.

A further test has as its target Flag-tagged HuR (UniProt Q15717). The test is described as above.
Test [2] has as its target Flag-tagged TTP (tristetraprolin) (UniProt P26651). The test is described as above.
In test [3] the target is T1, TTP (tristetraprolin), endogenous in RAW264.7 macrophage cells (mouse (endogenous in RAW264.7)). The experiment in a line: condition: only cells without LPS (TTP expressed only at low levels); co-IP; anti-TTP IP of endogenous proteins from RNase A-treated extracts of RAW264.7 cells prior to LPS treatment (0 h), TTP expressed only at low levels; Western blot.
Test [4] concerns the target T3, hnRNP F, endogenous in RAW264.7 macrophage cells (mouse (endogenous in RAW264.7)) (UniProt Q9Z2X1).
T3 sequence: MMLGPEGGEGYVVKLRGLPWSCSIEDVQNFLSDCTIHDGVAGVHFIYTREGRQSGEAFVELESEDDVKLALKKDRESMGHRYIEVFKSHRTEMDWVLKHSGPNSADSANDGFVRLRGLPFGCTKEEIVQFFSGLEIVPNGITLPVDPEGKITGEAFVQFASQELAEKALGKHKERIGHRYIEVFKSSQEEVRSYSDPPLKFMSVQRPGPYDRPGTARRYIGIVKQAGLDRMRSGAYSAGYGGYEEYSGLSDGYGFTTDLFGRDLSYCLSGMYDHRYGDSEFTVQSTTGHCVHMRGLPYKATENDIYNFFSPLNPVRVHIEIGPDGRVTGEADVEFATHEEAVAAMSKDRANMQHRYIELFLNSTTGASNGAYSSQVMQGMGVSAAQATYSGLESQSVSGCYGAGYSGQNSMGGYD
The experiment in a line: condition: only cells without LPS (TTP expressed only at low levels); co-IP; anti-hnRNP F/H (1G11) IP of endogenous proteins from RNase A-treated extracts of RAW264.7 cells prior to LPS treatment (0 h), TTP expressed only at low levels; Western blot.

Test [5] addresses T3, hnRNP F, endogenous in RAW264.7 macrophage cells (mouse (endogenous in RAW264.7)). In words: co-IP; anti-hnRNP F/H (1G11) IP (Protein G sepharose) of endogenous proteins from RNase A-treated extracts of RAW264.7 cells after 2 and 6 h of 100 ng/ml LPS; 150 mM NaCl, Net-2 buffer, 4°C; Western blot.

For the molecule “HuR, endogenous in RAW264.7 macrophage cells (from UniProt P70372 1-326)”, in test [1], the binding entry was “no binding”.

Take “Myc-tagged 14-3-3ε (from UniProt P62258 1-255)”: the results for the binding result (with Flag-tagged BRF1; in the test with Flag-tagged HuR; in test [2]) were “binds”, “no binding” and “binds”, respectively.

For “Myc-tagged CAD (carbamoyl-phosphate synthetase 2, aspartate transcarbamylase, and dihydroorotase) (from UniProt P27708 1-2225)”, the binding result is “binds” in the test with Flag-tagged BRF1, “no binding” with Flag-tagged HuR and “binds” in test [2].

B1: hnRNP F, endogenous in RAW264.7 macrophage cells (protein, UniProt Q9Z2X1 1-415)
chain: MMLGPEGGEGYVVKLRGLPWSCSIEDVQNFLSDCTIHDGVAGVHFIYTREGRQSGEAFVELESEDDVKLALKKDRESMGHRYIEVFKSHRTEMDWVLKHSGPNSADSANDGFVRLRGLPFGCTKEEIVQFFSGLEIVPNGITLPVDPEGKITGEAFVQFASQELAEKALGKHKERIGHRYIEVFKSSQEEVRSYSDPPLKFMSVQRPGPYDRPGTARRYIGIVKQAGLDRMRSGAYSAGYGGYEEYSGLSDGYGFTTDLFGRDLSYCLSGMYDHRYGDSEFTVQSTTGHCVHMRGLPYKATENDIYNFFSPLNPVRVHIEIGPDGRVTGEADVEFATHEEAVAAMSKDRANMQHRYIELFLNSTTGASNGAYSSQVMQGMGVSAAQATYSGLESQSVSGCYGAGYSGQNSMGGYD
As to B1, the binding result in test [1] is on record as “binds”; in test [3] it was “no binding”.

B2: TTP (tristetraprolin), endogenous in RAW264.7 macrophage cells (protein, UniProt P22893 1-319)
chain: MDLSAIYESLQSMSHDLSSDHGGTESLGGLWNINSDSIPSGVTSRLTGRSTSLVEGRSCGWVPPPPGFAPLAPRPGPELSPSPTSPTATPTTSSRYKTELCRTYSESGRCRYGAKCQFAHGLGELRQANRHPKYKTELCHKFYLQGRCPYGSRCHFIHNPTEDLALPGQPHVLRQSISFSGLPSGRRSSPPPPGFSGPSLSSCSFSPSSSPPPPGDLPLSPSAFSAAPGTPVTRRDPNQACCPSCRRSTTPSTIWGPLGGLARSPSAHSLGSDPDDYASSGSSLGGSDSPVFEAGVFGPPQTPAPPRRLPIFNRISVSE
As to B2, the figures for the binding entry in test [4] and in test [5] were “no binding” and “binds”, respectively.
